Experimental data as given in the supplement of paper PMC12217912.
The list shows a part of the results. Sequences were assembled here from the parent chain. Values near 0.05 are background.

B1: TEV protease; numbered along this chain (parent)
chain: MGESLFKGPRDYNPISSSICHLTNESDGHTTSLYGIGFGPFIITNKHLFRRNNGTLVVQSLHGVFKVKDTTTLQQHLVDGRDMIIIRMPKDFPPFPQKLKFREPQREERICLVTTNFQTKSMSSMVSDTSCTFPSGDGIFWKHWIQTKDGQCGSPLVSTRDGFIVGIHSASNFTNTNNYFTSVPKNFMELLTNQEAQQWVSGWRLNADSVLWGGHKVFMVKPEEPFQPVKEATQL

Variants of: B1
Experiment: raw area under fraction-flipped curve 0-4 h after induction (AUC4h, not background-subtracted), DNA-recorder readout of cleavage of the substrate (dimensionless); higher = more cleavage of the substrate by the protease variant
Details: temperature: 34 °C; time window: 0-4 h after rhamnose induction
Experimental: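 In vivo DNA recorder in E. coli TOP10(DE3) ΔrhaA at 34 °C. Each TEVp single-site mutant (parent TEVp 0) is paired with a single-site variant of the 7-mer TEVs (canonical ENLYFQ|S). The substrate sits between flexible linkers in a Bxb1-sfGFP-TEVs-SsrA fusion, so cleavage stabilises Bxb1 and speeds flipping of a recombination array, read by NGS. The value is the raw area under the fraction-flipped curve over 0-4 h after rhamnose induction (AUC4h), with ≥20 reads per time point. It is not background-subtracted; inactive controls average about 0.047.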
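Also: Bxb1 expression induced with 0.2% (w/v) L-rhamnose at OD600 near 0.5, cultures sampled hourly, flipped fraction per protease–substrate barcode pair counted by paired-end Illumina sequencing.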

Row | Variant | area with substrate ENLYFAS | area with substrate ENLYFCS | area with substrate ENLYFES | area with substrate ENLYFFS | area with substrate ENLYFHS | area with substrate ENLYFIS | area with substrate ENLYFMS | area with substrate ENLYFNS | area with substrate ENLYFPS | area with substrate ENLYFRS | area with substrate ENLYFSS | area with substrate ENLYFTS | area with substrate ENLYFYS | area with substrate ENLYFDS | area with substrate ENLYFKS | area with substrate ENLYFLS | area with substrate ENLYFWS | area with substrate ENLYFVS | area with substrate ENLYFGS
1 | A232D | 0.0407 | 0.0846 | 0.0676 | 0.0839 | 0.0419 | 0.0512 | 0.0729 | 0.0728 | 0.0611 | 0.0667 | 0.0585 | 0.0693 | 0.065 |  |  |  |  |  | 
2 | E223P | 0.0576 | 0.062 | 0.0536 |  |  |  | 0.0649 | 0.061 | 0.0577 | 0.0663 | 0.04 | 0.0627 |  | 0.0623 | 0.0587 | 0.0541 | 0.0503 |  | 
3 | G35H |  | 0.0302 | 0.038 | 0.0518 |  |  | 0.0174 | 0.0508 | 0.0461 | 0.0341 | 0.0546 | 0.0494 |  |  | 0.0534 | 0.0294 |  |  | 
4 | T55R |  | 0.0603 |  |  | 0.0838 | 0.035 | 0.0738 | 0.07 | 0.064 |  | 0.0561 | 0.0771 |  |  | 0.0543 |  |  |  | 
5 | L33T |  | 0.054 | 0.0704 | 0.0829 |  |  | 0.0696 | 0.054 | 0.0654 |  |  | 0.0453 |  |  | 0.065 |  |  | 0.0569 | 
6 | D79R |  | 0.0973 | 0.0664 | 0.066 |  | 0.0575 | 0.0589 | 0.0615 | 0.0493 | 0.0647 | 0.0631 | 0.0515 |  | 0.0565 | 0.0555 | 0.0618 | 0.0625 |  | 
7 | R87E |  | 0.061 |  |  |  | 0.0569 | 0.0635 | 0.0752 |  | 0.0917 |  | 0.0576 | 0.0532 |  |  | 0.0649 |  |  | 0.0633
8 | P9T |  | 0.0572 | 0.0633 |  |  |  |  |  | 0.0822 |  |  |  |  | 0.0589 |  |  |  |  | 
9 | Y12T |  | 0.0463 | 0.0639 |  |  | 0.0578 | 0.0763 | 0.107 | 0.0599 |  | 0.0593 | 0.0529 |  | 0.0539 | 0.0544 | 0.0688 | 0.0507 | 0.0587 | 
10 | F218E | 0.0639 | 0.0585 |  | 0.0681 |  | 0.0611 | 0.0631 | 0.0653 | 0.0608 | 0.0568 | 0.0447 | 0.0432 | 0.0685 | 0.0785 | 0.0647 | 0.0676 | 0.0656 |  | 0.0613
11 | F218Q | 0.053 | 0.0683 | 0.0579 | 0.0684 | 0.0518 |  | 0.0612 | 0.0693 | 0.0622 | 0.0741 | 0.063 | 0.0699 | 0.0519 | 0.0674 | 0.0678 | 0.0663 | 0.0667 | 0.0788 | 
12 | F218C | 0.057 |  | 0.0591 |  |  | 0.0558 |  | 0.0593 | 0.0625 |  |  | 0.0602 |  |  | 0.0664 |  |  |  | 
13 | V217M | 0.0583 | 0.0565 | 0.0692 | 0.0795 |  | 0.0595 | 0.0538 |  | 0.0571 | 0.064 | 0.0623 | 0.0476 |  |  | 0.0704 |  | 0.0559 |  | 0.0538
14 | I84L |  | 0.0532 | 0.0611 | 0.039 |  | 0.0589 | 0.0425 | 0.0527 | 0.0703 | 0.0495 |  | 0.0487 | 0.0646 | 0.0394 |  |  |  | 0.04 | 
15 | I84Y |  | 0.0628 | 0.0672 | 0.0688 | 0.0673 | 0.0562 |  |  | 0.0537 | 0.0709 | 0.0557 | 0.0479 |  |  |  | 0.0481 | 0.0313 | 0.0397 | 
16 | Q74T |  | 0.0557 | 0.0811 | 0.0623 |  | 0.0496 |  | 0.051 |  |  | 0.0451 | 0.0695 | 0.058 |  |  |  |  | 0.0497 | 

Row | Variant | area with substrate ENLYFAS | area with substrate ENLYFCS | area with substrate ENLYFES | area with substrate ENLYFFS | area with substrate ENLYFHS | area with substrate ENLYFIS | area with substrate ENLYFMS | area with substrate ENLYFNS | area with substrate ENLYFPS | area with substrate ENLYFRS | area with substrate ENLYFSS | area with substrate ENLYFTS | area with substrate ENLYFYS | area with substrate ENLYFDS | area with substrate ENLYFKS | area with substrate ENLYFLS | area with substrate ENLYFWS | area with substrate ENLYFVS | area with substrate ENLYFGS
17 | G214I | 0.0547 |  |  | 0.102 |  |  | 0.0554 |  | 0.0526 |  | 0.006 |  |  |  |  |  |  |  | 
18 | F6L |  | 0.0561 |  |  | 0.0807 | 0.064 | 0.063 | 0.0645 | 0.0415 |  |  |  | 0.0667 | 0.0604 |  | 0.0684 | 0.0598 |  | 
19 | F6E |  | 0.026 | 0.0495 |  |  |  |  |  | 0.0874 | 0.0522 | 0.0879 |  |  | 0.0644 |  |  | 0.0565 | 0.0557 | 
20 | E231Y | 0.0455 | 0.0472 |  | 0.0667 |  |  | 0.0668 |  | 0.0563 |  | 0.0619 | 0.0662 |  | 0.057 | 0.0698 |  | 0.0603 | 0.0895 | 
21 | E231S | 0.0879 |  | 0.0771 |  | 0.0646 |  | 0.0488 |  |  |  |  |  |  |  | 0.0602 |  |  | 0.0692 | 
22 | V57F |  | 0.0646 |  | 0.0652 | 0.0586 | 0.0546 | 0.0719 | 0.0596 | 0.0523 | 0.0634 | 0.052 | 0.0809 | 0.0559 |  | 0.0555 | 0.0128 | 0.0517 |  | 0.0399
23 | S18D |  | 0.0458 | 0.0502 |  |  | 0.0479 | 0.0469 |  |  |  | 0.0323 | 0.0571 |  | 0.0509 |  |  | 0.05 | 0.0526 | 
24 | Q227H | 0.0569 |  | 0.0691 | 0.068 | 0.0952 | 0.0623 | 0.0649 |  |  |  |  | 0.0632 | 0.0649 |  |  | 0.0505 |  |  | 
25 | F49N |  | 0.0402 |  |  | 0.0551 | 0.0592 | 0.0654 | 0.0464 |  | 0.0538 |  |  |  |  | 0.0554 | 0.0565 | 0.0573 |  | 0.0397
26 | I86P |  | 0.0355 | 0.0401 | 0.0457 | 0.0332 | 0.0492 | 0.0191 |  |  |  |  |  |  |  | 0.0434 |  |  |  | 
27 | H62Q |  | 0.062 | 0.0446 | 0.0716 |  | 0.0554 | 0.0671 |  |  |  | 0.0472 |  | 0.0608 |  |  |  | 0.0763 |  | 
28 | H62P |  | 0.051 |  |  |  | 0.0503 |  |  | 0.0535 | 0.0547 | 0.0601 |  | 0.054 | 0.0663 |  |  | 0.0617 |  | 
29 | V220F | 0.0625 | 0.0398 | 0.0593 | 0.0602 | 0.0587 | 0.057 | 0.067 | 0.0575 | 0.0606 | 0.0682 |  | 0.06 | 0.0566 | 0.0641 |  |  |  | 0.0565 | 
30 | V220H | 0.0484 | 0.12 | 0.0623 | 0.0827 | 0.0694 | 0.0515 | 0.0628 | 0.0052 | 0.0558 | 0.0624 | 0.0648 | 0.0664 |  | 0.0902 | 0.0663 |  | 0.0502 |  | 
31 | G2P |  | 0.0762 | 0.0715 | 0.0655 |  | 0.0491 | 0.0728 | 0.0697 | 0.0608 |  | 0.0612 | 0.0405 | 0.0539 | 0.0522 | 0.0536 |  | 0.0495 | 0.0202 | 0.0558
